The inconclusive results got no clear call from the source; some entries with a clear call stand among them for comparison. For part of these data: No potency is given beside an inconclusive call; the fits are too rough. The source made the active and inactive calls. Calls follow the shape of the dose curve; as a rule, active = well fitted curve in the direction sought with a large enough effect; inconclusive = small, poorly fitted or top-dose-only effect, or another doubt; inactive = no such curve, though single readings can be large; an effect the other way counts as inactive or inconclusive.
Molecular target: Rap guanine nucleotide exchange factor 3 (Homo sapiens) (UniProt O95398)
Assay: Confirmatory qHTS for antagonist of cAMP-regulated guanine nucleotide exchange factor 3 (EPAC1) (AID 1645880); also: nearly all actives have a fitted effect of over 55% in size
Conditions: EPAC1 Rap1B-BODIPY-GDP exchange, fluorescence; series mostly up to 115 µM; activity, negative = inhibition: at the top concentration
Outline: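 Released BODIPY-GDP fluoresces less than Rap1-bound BODIPY-GDP; the signal is followed at 480/540 nm at 5-min intervals over 30 min, after 5 min at room temperature. Reactions contain 100 nM EPAC1, 250 nM RAP1B-BODIPY-GDP and 50 uM GDP; results are normalized to ATA and DMSO.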
Potency is read from the fitted curve at half-maximal effect; tags tell the direction and shape of the fitted curve.

Sequence of UniProt O95398 (O95398 whole entry, looked up): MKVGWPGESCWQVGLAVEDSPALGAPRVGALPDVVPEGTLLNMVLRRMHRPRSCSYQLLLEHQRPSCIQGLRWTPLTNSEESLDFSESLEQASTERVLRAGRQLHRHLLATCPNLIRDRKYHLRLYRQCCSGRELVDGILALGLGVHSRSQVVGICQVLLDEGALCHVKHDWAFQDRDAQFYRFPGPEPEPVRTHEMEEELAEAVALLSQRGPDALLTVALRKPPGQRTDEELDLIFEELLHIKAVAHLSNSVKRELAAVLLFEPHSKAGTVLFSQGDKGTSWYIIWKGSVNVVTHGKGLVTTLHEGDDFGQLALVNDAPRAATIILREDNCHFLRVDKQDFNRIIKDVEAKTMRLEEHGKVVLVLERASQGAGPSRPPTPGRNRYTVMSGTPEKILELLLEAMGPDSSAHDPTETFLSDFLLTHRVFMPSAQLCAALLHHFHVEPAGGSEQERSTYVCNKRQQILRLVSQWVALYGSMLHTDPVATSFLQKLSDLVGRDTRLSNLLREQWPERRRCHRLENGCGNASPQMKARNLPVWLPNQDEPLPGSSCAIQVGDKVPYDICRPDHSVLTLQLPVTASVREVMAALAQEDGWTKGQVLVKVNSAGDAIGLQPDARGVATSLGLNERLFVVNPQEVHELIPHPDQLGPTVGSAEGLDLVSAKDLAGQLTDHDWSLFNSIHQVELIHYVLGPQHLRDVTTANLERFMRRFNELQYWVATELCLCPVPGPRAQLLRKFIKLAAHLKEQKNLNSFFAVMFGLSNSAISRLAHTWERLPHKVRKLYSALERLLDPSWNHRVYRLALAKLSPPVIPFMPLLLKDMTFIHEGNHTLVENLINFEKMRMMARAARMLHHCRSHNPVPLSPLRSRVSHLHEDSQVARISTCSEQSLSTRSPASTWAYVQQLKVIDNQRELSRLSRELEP

Compound	Potency
CCCN(CCC)c1c([N+](=O)[O-])cc(S(N)(=O)=O)cc1[N+](=O)[O-]	inconclusive [inhibitor, partial curve]
c1ccc(CCCN2CCN(CCOC(c3ccccc3)c3ccccc3)CC2)cc1	inconclusive [inhibitor, partial curve, poor fit]
O=c1oc2ccccc2c(O)c1C(CC(O)c1ccc(-c2ccc(Br)cc2)cc1)c1ccccc1 (stereo unspecified)	active: 15.7 µM

Molecular target: Rap guanine nucleotide exchange factor 4 (Homo sapiens) (UniProt Q8WZA2)
Assay: Confirmatory qHTS for antagonist of cAMP-regulated guanine nucleotide exchange factor 4 (EPAC2) (AID 1645885); also: nearly all actives have a fitted effect of over 25% in size; as to activity change, negative = inhibition: % is scaled to controls: 0 for no effect and ±100 for the full control effect
Conditions: EPAC2 Rap1B-BODIPY-GDP exchange fluorescence, biochemical; series mostly up to 114 µM; activity change, negative = inhibition: at the top concentration

Sequence of UniProt Q8WZA2 (Q8WZA2 whole entry, looked up): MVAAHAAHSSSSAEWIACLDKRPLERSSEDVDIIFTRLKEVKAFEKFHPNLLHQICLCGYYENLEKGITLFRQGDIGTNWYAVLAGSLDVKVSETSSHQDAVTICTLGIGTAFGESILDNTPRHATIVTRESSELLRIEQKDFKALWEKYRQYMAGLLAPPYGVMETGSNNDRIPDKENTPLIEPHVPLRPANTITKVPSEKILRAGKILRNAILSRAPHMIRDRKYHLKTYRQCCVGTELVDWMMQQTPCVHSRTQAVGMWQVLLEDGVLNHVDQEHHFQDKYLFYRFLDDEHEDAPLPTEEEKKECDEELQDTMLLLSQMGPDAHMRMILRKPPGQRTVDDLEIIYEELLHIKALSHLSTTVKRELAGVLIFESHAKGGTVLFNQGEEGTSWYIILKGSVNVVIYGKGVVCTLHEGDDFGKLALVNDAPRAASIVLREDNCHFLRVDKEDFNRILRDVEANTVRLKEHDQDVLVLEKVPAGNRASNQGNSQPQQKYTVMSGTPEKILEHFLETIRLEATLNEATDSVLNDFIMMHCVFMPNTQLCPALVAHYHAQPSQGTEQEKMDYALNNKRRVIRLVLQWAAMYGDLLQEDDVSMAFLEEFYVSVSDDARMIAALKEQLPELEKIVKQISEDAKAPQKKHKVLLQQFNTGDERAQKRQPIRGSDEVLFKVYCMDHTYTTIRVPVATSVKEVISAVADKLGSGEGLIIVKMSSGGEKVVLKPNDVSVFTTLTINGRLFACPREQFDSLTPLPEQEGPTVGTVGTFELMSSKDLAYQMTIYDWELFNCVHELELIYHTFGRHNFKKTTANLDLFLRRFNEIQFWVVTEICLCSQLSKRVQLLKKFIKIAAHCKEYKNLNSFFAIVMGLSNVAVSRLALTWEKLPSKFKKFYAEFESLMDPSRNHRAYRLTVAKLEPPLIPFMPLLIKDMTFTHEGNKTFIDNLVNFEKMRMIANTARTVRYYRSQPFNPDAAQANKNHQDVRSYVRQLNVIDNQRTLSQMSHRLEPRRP

Compound	Potency	activity change, negative = inhibition
CCCN(CCC)c1c([N+](=O)[O-])cc(S(N)(=O)=O)cc1[N+](=O)[O-]	active: 89.7 µM	
CC1=NN=C(c2ccc(N)cc2)c2cc3c(cc2C1)OCO3		inactive: -5.35%
O=c1oc2ccccc2c(O)c1C(CC(O)c1ccc(-c2ccc(Br)cc2)cc1)c1ccccc1 (stereo unspecified)	active: 44.1 µM	

Test system: not listed separately
Assay: NCATS anti-infectives library activity on HEK293 viability as a counter-qHTS vs the C. elegans viability qHTS (AID 1745854); as to activity change, negative = cytotoxicity: % is scaled to controls: 0 for no effect and ±100 for the full control effect
Conditions: HEK293 viability counter-screen; series mostly up to 41.8 µM; activity change, negative = cytotoxicity: at the top concentration
Outline: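 Cytotoxicity counter-screen to a worm viability qHTS: CellTiter-Glo luminescence read 10 min after reagent addition. Compounds (final up to 41.7 uM, a 1:5 dilution series) incubated 24 hr at 37C with 1,500 HEK293 cells per well; digitonin control.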

Compound	Potency	activity change, negative = cytotoxicity
Fc1cc(F)c2c(c1)[C@H]1C=CC[C@H]1C(c1cccnc1)N2 (stereo partly specified)	inconclusive [cytotoxic, partial curve, poor fit]	
O=c1c2ccccc2[se]n1-c1ccccc1	inconclusive [cytotoxic, partial curve, poor fit]	
COc1cc(C(=O)O[C@H]2[C@@H]3C=CO[C@@H](O[C@@H]4O[C@H](CO)[C@@H](O)[C@H](O)[C@H]4O)[C@@H]3[C@@]3(CO)O[C@@H]23)ccc1O		inactive: -17.3%

Molecular target: Metallo-beta-lactamase type 2 (Klebsiella pneumoniae) (UniProt C7C422)
Assay: qHTS to identify inhibitors of the New Delhi Metallo-beta-lactamase (NDM): assay validation screen against the NCATS LOPAC Collection (AID 1794843); as to activity change, negative = inhibition: % is scaled to controls: 0 for no effect and ±100 for the full control effect
Conditions: NDM-1 enzyme, nitrocefin hydrolysis, absorbance 485 nm; series mostly up to 38.4 µM; activity change, negative = inhibition: at the top concentration
Outline: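 Absorbance at 485 nm from nitrocefin turnover (50 uM solution added), read at plateau, gives the read-out. Compounds in DMSO were incubated first with 2 nM final NDM-1 in pH 7.0 HEPES buffer containing 1 uM ZnSO4 and 0.01% Tween20.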

Sequence of UniProt C7C422 (C7C422 whole entry, looked up): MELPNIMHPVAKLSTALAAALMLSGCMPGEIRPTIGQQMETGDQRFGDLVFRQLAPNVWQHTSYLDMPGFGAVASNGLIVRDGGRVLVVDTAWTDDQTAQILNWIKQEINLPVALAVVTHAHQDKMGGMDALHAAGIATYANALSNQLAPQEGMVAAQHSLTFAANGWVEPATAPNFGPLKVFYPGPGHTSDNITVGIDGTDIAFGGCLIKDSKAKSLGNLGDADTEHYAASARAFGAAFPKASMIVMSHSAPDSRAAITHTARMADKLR

Compound	activity change, negative = inhibition	Potency
C[N+](C)(C)CC#CCOC(=O)Nc1cccc(Cl)c1	inactive: -0.49%	
CN1CCC[C@@H]1Cc1c[nH]c2ccc(Nc3ncccc3[N+](=O)[O-])cc12	inactive: 8.44%	
N#CC(C#N)=Cc1ccc(O)c(O)c1		inconclusive [inhibitor, partial curve]

Molecular target: Glutathione peroxidase 1 (Homo sapiens) (UniProt P07203)
Assay: Primary qHTS Assay for Inhibitors of Recombinant Selenoprotein Glutathione Peroxidase 1 (GPX1) (AID 1845191); also: nearly all actives have a fitted effect of over 65% in size; as to activity, negative = inhibition: % is scaled to controls: 0 for no effect and ±100 for the full control effect
Conditions: recombinant GPX1, GR-coupled NADPH fluorescence, 15 min; series mostly up to 48.8 µM; activity, negative = inhibition: at the top concentration
Outline: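 NADPH consumption tracked by fluorescence at 340/450 nm between t=0 and t=15 min, room temperature. Final mix: 10 nM GPX1, 100 nM glutathione reductase, 1 mM GSH, 0.5 mM NADPH, 0.5 mM cumene hydroperoxide, 0.01% BSA; 30 min compound–enzyme preincubation.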

Sequence of UniProt P07203 (P07203 whole entry, looked up): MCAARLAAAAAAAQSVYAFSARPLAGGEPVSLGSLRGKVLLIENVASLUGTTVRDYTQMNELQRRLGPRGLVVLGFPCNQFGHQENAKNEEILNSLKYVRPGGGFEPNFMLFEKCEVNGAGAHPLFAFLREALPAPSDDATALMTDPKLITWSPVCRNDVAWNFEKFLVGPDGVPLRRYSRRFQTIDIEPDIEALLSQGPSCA

Compound	activity, negative = inhibition	Potency
CCCOC(=O)Cc1ccc(OCC(=O)N(CC)CC)c(OC)c1	inactive: -8.4% [at 27.7 µM]	
CCCCCCCCC(=O)NCc1ccc(O)c(OC)c1	inactive: -6.91%	
Fc1cc(F)c2c(c1)[C@H]1C=CC[C@H]1C(c1cccnc1)N2 (stereo partly specified)		inactive
CC12CCC3C(C1)c1c(cc(O)c(C(=O)c4ccccc4)c1OC3(C)C)O2 (stereo unspecified)		inconclusive [inhibitor, partial curve, poor fit]
CC(C)[C@H]1OC(=O)[C@H](Cc2ccccc2)N(C)C(=O)[C@@H](C(C)C)OC(=O)[C@H](Cc2ccccc2)N(C)C(=O)[C@@H](C(C)C)OC(=O)[C@H](Cc2ccccc2)N(C)C1=O		inconclusive [inhibitor, partial curve, poor fit]
Cc1sc2c(c1C)C(c1ccc(Cl)cc1)=N[C@@H](CC(N)=O)c1nnc(C)n1-2		inactive
O=c1n(Cl)c(=O)n(Cl)c(=O)n1Cl		inconclusive [inhibitor, single point]
C[C@@H]1Cc2c(Cl)cc(C(=O)N[C@@H](Cc3ccccc3)C(=O)O)c(O)c2C(=O)O1		inconclusive [inhibitor, single point]
S=C(NC1CCCCC1)N1CCC(c2cnc[nH]2)CC1		inconclusive [inhibitor, partial curve, poor fit]

— PubChem BioAssay (NCATS)
